Experimental data taken from paper PMC12820563, “FoxP3 forms a head-to-head dimer in vivo and stabilizes its multimerization on adjacent microsatellites”.
The list shows a part of the results.

What follows are sequences tested against T1, MBP-FoxP1dN (Mus musculus, UniProt P58462 326-579) (assay: PD-seq (MBP pull-down with sequencing); 20 mM Tris-HCl pH 7.5, 100 mM NaCl, 1.5 mM MgCl2, 0.4 uM protein, 0.1 uM dsDNA library, 30 min, room temperature, amylose pull-down; high values mean tight binding). Details: protein: recombinant; tags: His6-MBP; chain copies: 2; dsDNA, one strand shown.
T1 sequence: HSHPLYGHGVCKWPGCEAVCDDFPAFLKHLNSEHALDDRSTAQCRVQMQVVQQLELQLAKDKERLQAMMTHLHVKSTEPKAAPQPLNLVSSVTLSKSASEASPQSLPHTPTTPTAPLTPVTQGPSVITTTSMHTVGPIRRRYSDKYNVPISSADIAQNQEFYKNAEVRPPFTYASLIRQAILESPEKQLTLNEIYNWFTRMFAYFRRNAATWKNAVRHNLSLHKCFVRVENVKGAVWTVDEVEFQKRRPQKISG
Method in brief: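 A degenerate double-stranded DNA library, filled in with Klenow, was added at 0.1 µM to 0.4 µM His6-MBP-tagged mouse FoxP3 or FoxP1 fragment lacking the N-terminus, expressed in E. coli. Incubation lasted 30 min at room temperature in Tris pH 7.5 buffer with NaCl and MgCl2, after which complexes were collected on amylose resin, washed three times, digested with proteinase K to free the DNA, barcoded by PCR and sequenced by Illumina. Binding is the pooled-replicate reads-per-million enrichment of pull-down over input.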
For “GATGATTGTTCTCCCAGCTGATGAATTCTGATGGTCGAGTAAACAAATTTTCCTAATCTTTCTGTTCAAGCGCCATCTAC”, the binding signal was 0.826 RPM ratio (pull-down/input). With “GATGATTGTTCTCCCAGCTGATGAATTGAGAAATTCGAGTAAACAAATTTTCCTAATCTTTCTGTTCAAGCGCCATCTAC” the binding signal was 0.906 RPM ratio (pull-down/input). “GATGATTGTTCTCCCAGCTGATGAATTCCTGTATTCGAGTAAACAAATTTTCCTAATCTTTCTGTTCAAGCGCCATCTAC” was tested, and the binding signal was 1.3 RPM ratio (pull-down/input). For “GATGATTGTTCTCCCAGCTGATGAATTTGTCGTTTCGAGTAAACAAATTTTCCTAATCTTTCTGTTCAAGCGCCATCTAC”, the binding signal was 1.1 RPM ratio (pull-down/input). With “GATGATTGTTCTCCCAGCTGATGAATTAGAAGAATCGAGTAAACAAATTTTCCTAATCTTTCTGTTCAAGCGCCATCTAC” the binding signal was 0.994 RPM ratio (pull-down/input). With “GATGATTGTTCTCCCAGCTGATGAATTGAATCTTTCGAGTAAACAAATTTTCCTAATCTTTCTGTTCAAGCGCCATCTAC” the binding signal was 0.846 RPM ratio (pull-down/input). In the case of “GATGATTGTTCTCCCAGCTGATGAATTACGACTGTCGAGTAAACAAATTTTCCTAATCTTTCTGTTCAAGCGCCATCTAC”, the binding signal is reported as 0.982 RPM ratio (pull-down/input). For “GATGATTGTTCTCCCAGCTGATGAATTAGATCTGTCGAGTAAACAAATTTTCCTAATCTTTCTGTTCAAGCGCCATCTAC”, the binding signal was 0.837 RPM ratio (pull-down/input). With “GATGATTGTTCTCCCAGCTGATGAATTAGCGGAGTCGAGTAAACAAATTTTCCTAATCTTTCTGTTCAAGCGCCATCTAC” the binding signal was 0.826 RPM ratio (pull-down/input). For “GATGATTGTTCTCCCAGCTGATGAATTAGCGGGTTCGAGTAAACAAATTTTCCTAATCTTTCTGTTCAAGCGCCATCTAC”, the binding signal was 0.808 RPM ratio (pull-down/input). “GATGATTGTTCTCCCAGCTGATGAATTGTCAATTTCGAGTAAACAAATTTTCCTAATCTTTCTGTTCAAGCGCCATCTAC” was tested, and the binding signal was 1.14 RPM ratio (pull-down/input). With “GATGATTGTTCTCCCAGCTGATGAATTCAGCTGCTCGAGTAAACAAATTTTCCTAATCTTTCTGTTCAAGCGCCATCTAC” the binding signal was 0.744 RPM ratio (pull-down/input). With “GATGATTGTTCTCCCAGCTGATGAATTTGGTGCCTCGAGTAAACAAATTTTCCTAATCTTTCTGTTCAAGCGCCATCTAC” the binding signal was 0.873 RPM ratio (pull-down/input). For “GATGATTGTTCTCCCAGCTGATGAATTACTCTCCTCGAGTAAACAAATTTTCCTAATCTTTCTGTTCAAGCGCCATCTAC”, the binding signal was 0.961 RPM ratio (pull-down/input). In the case of “GATGATTGTTCTCCCAGCTGATGAATTTGCCAAATCGAGTAAACAAATTTTCCTAATCTTTCTGTTCAAGCGCCATCTAC”, the binding signal is reported as 1.07 RPM ratio (pull-down/input). For “GATGATTGTTCTCCCAGCTGATGAATTACTTGCTTCGAGTAAACAAATTTTCCTAATCTTTCTGTTCAAGCGCCATCTAC”, the binding signal was 1.01 RPM ratio (pull-down/input). For “GATGATTGTTCTCCCAGCTGATGAATTAAGGACGTCGAGTAAACAAATTTTCCTAATCTTTCTGTTCAAGCGCCATCTAC”, the binding signal was 0.899 RPM ratio (pull-down/input). For “GATGATTGTTCTCCCAGCTGATGAATTCTTGACCTCGAGTAAACAAATTTTCCTAATCTTTCTGTTCAAGCGCCATCTAC”, the binding signal was 0.786 RPM ratio (pull-down/input). In the case of “GATGATTGTTCTCCCAGCTGATGAATTCCTGAGCTCGAGTAAACAAATTTTCCTAATCTTTCTGTTCAAGCGCCATCTAC”, the binding signal is reported as 0.782 RPM ratio (pull-down/input). With “GATGATTGTTCTCCCAGCTGATGAATTATGGTTATCGAGTAAACAAATTTTCCTAATCTTTCTGTTCAAGCGCCATCTAC” the binding signal was 1.06 RPM ratio (pull-down/input). For “GATGATTGTTCTCCCAGCTGATGAATTCGACGCATCGAGTAAACAAATTTTCCTAATCTTTCTGTTCAAGCGCCATCTAC”, the binding signal was 1.09 RPM ratio (pull-down/input). For “GATGATTGTTCTCCCAGCTGATGAATTCTGCCTTTCGAGTAAACAAATTTTCCTAATCTTTCTGTTCAAGCGCCATCTAC”, the binding signal was 0.913 RPM ratio (pull-down/input). In the case of “GATGATTGTTCTCCCAGCTGATGAATTCGCCGCTTCGAGTAAACAAATTTTCCTAATCTTTCTGTTCAAGCGCCATCTAC”, the binding signal is reported as 0.868 RPM ratio (pull-down/input). For “GATGATTGTTCTCCCAGCTGATGAATTCTTGGGCTCGAGTAAACAAATTTTCCTAATCTTTCTGTTCAAGCGCCATCTAC”, the binding signal was 0.749 RPM ratio (pull-down/input). “GATGATTGTTCTCCCAGCTGATGAATTTATGCGGTCGAGTAAACAAATTTTCCTAATCTTTCTGTTCAAGCGCCATCTAC” was tested, and the binding signal was 1.09 RPM ratio (pull-down/input). For “GATGATTGTTCTCCCAGCTGATGAATTGCCAGGCTCGAGTAAACAAATTTTCCTAATCTTTCTGTTCAAGCGCCATCTAC”, the binding signal was 0.814 RPM ratio (pull-down/input). For “GATGATTGTTCTCCCAGCTGATGAATTATTTGGATCGAGTAAACAAATTTTCCTAATCTTTCTGTTCAAGCGCCATCTAC”, the binding signal was 1.29 RPM ratio (pull-down/input). With “GATGATTGTTCTCCCAGCTGATGAATTACACGAGTCGAGTAAACAAATTTTCCTAATCTTTCTGTTCAAGCGCCATCTAC” the binding signal was 1.08 RPM ratio (pull-down/input). For “GATGATTGTTCTCCCAGCTGATGAATTTTGTATGTCGAGTAAACAAATTTTCCTAATCTTTCTGTTCAAGCGCCATCTAC”, the binding signal was 1.54 RPM ratio (pull-down/input). With “GATGATTGTTCTCCCAGCTGATGAATTCGAGTGGTCGAGTAAACAAATTTTCCTAATCTTTCTGTTCAAGCGCCATCTAC” the binding signal was 0.752 RPM ratio (pull-down/input). “GATGATTGTTCTCCCAGCTGATGAATTCCGGCACTCGAGTAAACAAATTTTCCTAATCTTTCTGTTCAAGCGCCATCTAC” was tested, and the binding signal was 0.819 RPM ratio (pull-down/input). With “GATGATTGTTCTCCCAGCTGATGAATTATTGTGATCGAGTAAACAAATTTTCCTAATCTTTCTGTTCAAGCGCCATCTAC” the binding signal was 1.76 RPM ratio (pull-down/input).
